The supplement of paper PMC7826260
Some of the results follow. Viral Rep nickase domains cut single-stranded DNA in vitro for 1 h at 37 °C with 3 µM enzyme; only the middle of the 90-letter strands is printed. The score is log2 (uncut reads / reads without enzyme); more negative means more cut, near 0 not cut, and no call is made. The scaling is to total reads; values above 0 arise when much of the pool is cut.

How the values were obtained:
Test in all cases: uncleaved DNA left, log2 of reads against the no-enzyme library (log2 ratio); higher = less cleavage (more negative = more Rep cleavage of the k-mer); sequences stand for … in CTCGTCCG…ACCGGAGA
[1] = system: T1, Rep nickase domain of Muscovy duck circovirus
T1 sequence (Rep 1-111, printed without the tag): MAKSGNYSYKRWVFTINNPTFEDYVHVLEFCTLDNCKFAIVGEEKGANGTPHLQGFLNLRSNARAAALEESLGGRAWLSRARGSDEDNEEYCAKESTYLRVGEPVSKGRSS
Procedure: (§1)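 A pool of 90-nt single-stranded DNAs with seven random bases just before the constant AC of the nick site (name = the seven bases) was cut by 3 µM recombinant His6-SUMO-tagged Rep nickase domain (300 nM DNA, 50 mM HEPES pH 8.0, 50 mM NaCl, 1 mM MnCl2, 1 h, 37 °C, three replicates). Uncut DNA was amplified and sequenced.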

[2] = system: T2, Rep nickase domain of banana bunchy top virus
T2 sequence (Rep 1-94, printed without the tag): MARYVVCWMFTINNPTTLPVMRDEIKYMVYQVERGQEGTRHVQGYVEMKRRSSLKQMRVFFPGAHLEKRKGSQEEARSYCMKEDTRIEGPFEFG
Procedure: as §1

[3] = system: T3, Rep nickase domain of cabbage leaf curl virus
T3 sequence (Rep 1-116, printed without the tag): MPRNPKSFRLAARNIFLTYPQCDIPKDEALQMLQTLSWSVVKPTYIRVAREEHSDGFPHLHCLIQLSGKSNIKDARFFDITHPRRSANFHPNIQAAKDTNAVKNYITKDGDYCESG
Procedure: as §1

[4] = system: T4, Rep nickase domain of chickpea chlorotic dwarf virus
T4 sequence (Rep 1-124, printed without the tag): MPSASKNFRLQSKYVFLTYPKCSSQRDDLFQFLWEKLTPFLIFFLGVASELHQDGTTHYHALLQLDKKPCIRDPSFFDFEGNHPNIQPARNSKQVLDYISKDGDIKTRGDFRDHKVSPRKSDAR
Procedure: as §1

[5] = system: T5, Rep nickase domain of faba bean necrotic yellows virus
T5 sequence (Rep 1-98, printed without the tag): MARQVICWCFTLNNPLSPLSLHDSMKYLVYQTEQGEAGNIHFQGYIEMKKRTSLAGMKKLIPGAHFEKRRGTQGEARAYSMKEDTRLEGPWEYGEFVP
Procedure: as §1

[6] = system: T6, Rep nickase domain of maize striate mosaic virus
T6 sequence (Rep 1-117, printed without the tag): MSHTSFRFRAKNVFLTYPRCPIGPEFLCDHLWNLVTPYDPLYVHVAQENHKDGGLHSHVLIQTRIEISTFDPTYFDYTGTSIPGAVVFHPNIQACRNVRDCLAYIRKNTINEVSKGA
Procedure: as §1

[7] = system: T7, Rep nickase domain of porcine circovirus 2
T7 sequence (Rep 2-116, printed without the tag): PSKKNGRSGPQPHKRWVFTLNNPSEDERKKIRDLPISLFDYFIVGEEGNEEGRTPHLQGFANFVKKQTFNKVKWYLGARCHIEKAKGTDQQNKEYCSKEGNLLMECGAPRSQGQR
Procedure: as §1

[8] = system: T8, Rep nickase domain of tomato golden mosaic virus
T8 sequence (Rep 1-124, printed without the tag): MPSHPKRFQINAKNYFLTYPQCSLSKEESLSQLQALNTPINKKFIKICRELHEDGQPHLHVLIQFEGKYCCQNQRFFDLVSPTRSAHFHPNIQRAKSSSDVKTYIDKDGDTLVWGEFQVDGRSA
Procedure: as §1

[9] = system: T9, Rep nickase domain of tomato yellow leaf curl virus
T9 sequence (Rep 1-136, printed without the tag): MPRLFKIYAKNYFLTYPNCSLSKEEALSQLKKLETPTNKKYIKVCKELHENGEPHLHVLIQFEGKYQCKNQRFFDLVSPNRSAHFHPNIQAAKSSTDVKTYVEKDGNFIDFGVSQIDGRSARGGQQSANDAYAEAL
Procedure: as §1

[10] = system: T10, Rep nickase domain of wheat dwarf virus
T10 sequence (Rep 1-137, printed without the tag): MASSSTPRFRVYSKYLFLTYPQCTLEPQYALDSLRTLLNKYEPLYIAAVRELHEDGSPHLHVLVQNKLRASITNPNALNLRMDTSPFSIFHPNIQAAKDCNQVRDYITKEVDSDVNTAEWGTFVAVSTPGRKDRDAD
Procedure: as §1

Row | Sequence | uncleaved DNA left (log2) [1] | uncleaved DNA left (log2) [2] | uncleaved DNA left (log2) [3] | uncleaved DNA left (log2) [4] | uncleaved DNA left (log2) [5] | uncleaved DNA left (log2) [6] | uncleaved DNA left (log2) [7] | uncleaved DNA left (log2) [8] | uncleaved DNA left (log2) [9] | uncleaved DNA left (log2) [10]
1 | TAATATA | -2.22 | -0.0746 | -3.24 | -3.05 | -0.0485 | -2.26 | -2.13 | -2.65 | -0.0855 | -3.09
2 | CACTGCG | -0.0844 | -0.0674 | -0.516 | 1.06 | -0.0421 | 0.296 | 0.027 | -0.208 | -0.284 | -0.165
3 | GTTTCGA | 0.109 | 0.188 | 0.334 | 0.828 | 0.045 | 1.35 | 0.133 | 0.125 | 0.0852 | 0.124
4 | GGATCAG | 0.0544 | 0.164 | 0.683 | 1.73 | 0.0109 | 1.6 | 0.258 | 0.0531 | 0.111 | 0.159
5 | AGAGCGG | 0.0878 | 0.118 | 0.0332 | 0.463 | 0.131 | 0.53 | 0.1 | 0.13 | -0.177 | 0.0418
6 | TGCCTCT | -0.00786 | -0.0925 | -0.0203 | -1.49 | -0.167 | -0.268 | -0.202 | -0.0965 | -0.0806 | -0.0388
7 | CTTCCGG | 0.0114 | 0.0698 | 0.447 | 1.37 | -0.0692 | 1.58 | 0.1 | 0.0816 | 0.00272 | -0.0207
8 | TGAGTAC | 0.1 | -0.054 | 0.326 | -0.00784 | -0.00994 | 0.352 | 0.0325 | 0.0121 | -0.0316 | 0.0725
9 | CTTCGTC | -0.0267 | -0.0194 | -0.201 | -0.531 | -0.192 | -0.943 | -0.117 | -0.211 | -0.00706 | -0.115
10 | GTGTCTA | 0.0322 | 0.0446 | 0.284 | 0.868 | -0.0413 | 1.85 | 0.084 | 0.129 | -0.0371 | 0.0801
11 | TGGTGTT | -2.31 | -0.279 | -0.366 | -1.41 | -1.01 | 0.582 | -3.19 | -0.319 | -0.0363 | -0.492
12 | GCCTCAG | -0.0545 | -0.158 | -0.387 | -0.384 | -0.146 | -0.896 | 0.0813 | -0.0421 | -0.0711 | -0.0806
13 | CTATCGA | 0.103 | 0.0814 | -0.483 | -0.608 | 0.0849 | -1.13 | 0.0295 | -0.0286 | -0.016 | -0.00934
14 | GCGCATC | -0.0592 | -0.0586 | 0.157 | 0.59 | -0.182 | 0.259 | 0.0502 | -0.161 | -0.0928 | -0.096
15 | CCCTGCG | -0.0526 | 0.0795 | -0.591 | 0.719 | -0.121 | -0.0915 | 0.276 | -0.0478 | -0.172 | 0.0869
16 | GAGAACG | -0.0161 | -0.0165 | -0.602 | -0.408 | 0.0272 | -0.802 | 0.188 | -0.0638 | -0.0945 | -0.0783
17 | CTTATCA | 0.125 | 0.207 | 1.02 | 0.851 | 0.0064 | 2.15 | 0.128 | 0.11 | 0.21 | 0.344
18 | GAAAGAT | 0.0351 | -0.086 | 0.116 | -0.0729 | -0.0868 | 1.35 | 0.0654 | 0.0288 | -0.0875 | 0.076
19 | CAGCGAC | 0.0786 | 0.115 | -0.0515 | 0.57 | 0.155 | 0.632 | 0.146 | 0.031 | 0.0179 | 0.039
20 | TTCCCTA | -0.182 | -0.118 | 0.0578 | -0.655 | -0.105 | -0.0625 | -0.482 | -0.177 | -0.12 | -0.128
21 | CGGCCGT | 0.00654 | -0.00428 | -0.0766 | -0.126 | -0.0257 | -0.351 | 0.107 | -0.00894 | -0.0178 | -0.0047
22 | GGTAGAC | -0.00896 | 0.131 | 0.826 | 1.98 | 0.00841 | 2.17 | 0.205 | 0.00641 | 0.0367 | 0.145
23 | ACCTTTC | -0.0611 | -0.124 | -0.348 | -0.477 | -0.099 | -1.04 | -0.00364 | -0.0285 | -0.0973 | -0.229
24 | GATGCAC | 0.0607 | 0.0395 | 0.085 | 0.525 | -0.0377 | -0.0982 | 0.0962 | 0.0491 | 0.0919 | 0.0562
25 | GTACTAT | 0.149 | 0.0755 | 0.513 | 0.938 | 0.138 | 1.98 | 0.184 | 0.228 | 0.183 | 0.197
26 | AACAGCG | 0.0702 | 0.0422 | -0.526 | 0.925 | 0.217 | -0.0582 | 0.234 | 0.0249 | 0.114 | -0.0421
27 | ACCCGAA | 0.0504 | -0.0594 | 0.14 | 0.399 | -0.0386 | -0.48 | -0.0241 | 0.0174 | -0.153 | 0.102
28 | ACGGGTG | -0.211 | -0.195 | -0.629 | -0.334 | -0.253 | -0.774 | -0.0879 | -0.0942 | -0.0971 | -0.169
29 | GGGCCTG | -0.0956 | 0.0701 | 0.462 | 1.41 | -0.049 | 2.05 | 0.184 | 0.0115 | 0.0285 | 0.063
